Reference: the supplement of paper PMC9927326

Tests used:
Assay in all cases: CLSI broth microdilution.
flucytosine = compound: Nc1[nH]c(=O)ncc1F [flucytosine]
voriconazole = compound: C[C@@H](c1ncncc1F)[C@](O)(Cn1cncn1)c1ccc(F)cc1F [voriconazole]
itraconazole = compound: CCC(C)n1ncn(-c2ccc(N3CCN(c4ccc(OCC5COC(Cn6cncn6)(c6ccc(Cl)cc6Cl)O5)cc4)CC3)cc2)c1=O [itraconazole]
posaconazole = compound: CC[C@@H]([C@H](C)O)n1ncn(-c2ccc(N3CCN(c4ccc(OC[C@@H]5CO[C@@](Cn6cncn6)(c6ccc(F)cc6F)C5)cc4)CC3)cc2)c1=O [posaconazole]
micafungin = compound: CCCCCOc1ccc(-c2cc(-c3ccc(C(=O)N[C@H]4C[C@@H](O)[C@@H](O)NC(=O)[C@@H]5[C@@H](O)[C@@H](C)CN5C(=O)[C@H]([C@H](O)CC(N)=O)NC(=O)[C@H]([C@H](O)[C@@H](O)c5ccc(O)c(OS(=O)(=O)O)c5)NC(=O)[C@@H]5C[C@@H](O)CN5C(=O)[C@H]([C@@H](C)O)NC4=O)cc3)no2)cc1 [micafungin]
fluconazole = compound: OC(Cn1cncn1)(Cn1cncn1)c1ccc(F)cc1F [fluconazole]
caspofungin = compound: CC[C@H](C)C[C@H](C)CCCCCCCCC(=O)N[C@H]1C[C@@H](O)[C@@H](NCCN)NC(=O)[C@@H]2[C@@H](O)CCN2C(=O)[C@H]([C@H](O)CCN)NC(=O)[C@H]([C@H](O)[C@@H](O)c2ccc(O)cc2)NC(=O)[C@@H]2C[C@@H](O)CN2C(=O)[C@H]([C@@H](C)O)NC1=O [caspofungin]
amphotericin B = compound: C[C@@H]1[C@H](O)[C@@H](C)/C=C/C=C/C=C/C=C/C=C/C=C/C=C/[C@H](O[C@@H]2O[C@H](C)[C@@H](O)[C@H](N)[C@@H]2O)C[C@@H]2O[C@](O)(C[C@@H](O)C[C@@H](O)[C@H](O)CC[C@@H](O)C[C@@H](O)CC(=O)O[C@H]1C)C[C@H](O)[C@H]2C(=O)O [amphotericin B]
anidulafungin = compound: CCCCCOc1ccc(-c2ccc(-c3ccc(C(=O)N[C@H]4C[C@@H](O)[C@@H](O)NC(=O)[C@@H]5[C@@H](O)[C@@H](C)CN5C(=O)[C@H]([C@@H](C)O)NC(=O)[C@H]([C@H](O)[C@@H](O)c5ccc(O)cc5)NC(=O)[C@@H]5C[C@@H](O)CN5C(=O)[C@H]([C@@H](C)O)NC4=O)cc3)cc2)cc1 [anidulafungin]

Test System	MIC (flucytosine)	MIC (voriconazole)	MIC (itraconazole)	MIC (posaconazole)	MIC (micafungin)	MIC (fluconazole)	MIC (caspofungin)	MIC (amphotericin B)	MIC (anidulafungin)
Candida albicans isolate 145 (Erg11p: E266D, Fur1p: WT, Tac1p: N896S)	≤ 0.06 mg/L [S]	≤ 0.008 mg/L [S]	0.03 mg/L [S]	0.015 mg/L [S]	0.015 mg/L [S]	0.5 mg/L [S]	0.06 mg/L [S]	0.5 mg/L [S]	0.06 mg/L [S]
Candida albicans isolate 338 (Erg11p: WT, Fur1p: WT, Tac1p: N896S)	≤ 0.06 mg/L [S]	≤ 0.008 mg/L [S]	≤ 0.015 mg/L [S]	0.015 mg/L [S]	0.015 mg/L [S]	0.25 mg/L [S]	0.03 mg/L [S]	0.25 mg/L [S]	≤ 0.015 mg/L [S]
Candida albicans isolate 104 (Erg11p: Y257H,A114S, Fur1p: R101C, Tac1p: A736V)	0.12 mg/L [S]	1 mg/L [R]	0.5 mg/L [R]	1 mg/L [R]	0.015 mg/L [S]	32 mg/L [R]	0.03 mg/L [S]	0.5 mg/L [S]	≤ 0.015 mg/L [S]
Candida albicans isolate 259 (Erg11p: Y257H,A114S, Fur1p: R101C, Tac1p: A736V)	0.12 mg/L [S]	1 mg/L [R]	0.5 mg/L [R]	1 mg/L [R]	0.015 mg/L [S]	32 mg/L [R]	0.03 mg/L [S]	0.5 mg/L [S]	≤ 0.015 mg/L [S]
Candida albicans isolate 280 (Erg11p: E266D, Fur1p: WT, Tac1p: T885K,I558V,A430V,A377V,F189S,N174D,M170I,M170V,K87N)	≤ 0.06 mg/L [S]	≤ 0.008 mg/L [S]	≤ 0.015 mg/L [S]	0.015 mg/L [S]	0.015 mg/L [S]	0.25 mg/L [S]	0.03 mg/L [S]	0.25 mg/L [S]	≤ 0.015 mg/L [S]
Candida albicans isolate 59 (Erg11p: V437I,E266D, Fur1p: WT, Tac1p: F189S,N174D,M170I,A90T,K87N)	≤ 0.06 mg/L [S]	0.015 mg/L [S]	0.06 mg/L [S]	0.03 mg/L [S]	0.015 mg/L [S]	0.5 mg/L [S]	0.06 mg/L [S]	0.25 mg/L [S]	0.06 mg/L [S]
Candida albicans isolate 285 (Erg11p: WT, Fur1p: WT, Tac1p: I558V,A377V,F189S,N174D,M170I,K87N)	≤ 0.06 mg/L [S]	≤ 0.008 mg/L [S]	≤ 0.015 mg/L [S]	≤ 0.008 mg/L [S]	0.015 mg/L [S]	0.25 mg/L [S]	0.03 mg/L [S]	0.5 mg/L [S]	≤ 0.015 mg/L [S]
Candida albicans isolate 307 (Erg11p: V488I,E266D, Fur1p: WT, Tac1p: I558V,A377V)	≤ 0.06 mg/L [S]	≤ 0.008 mg/L [S]	≤ 0.015 mg/L [S]	0.015 mg/L [S]	0.015 mg/L [S]	0.25 mg/L [S]	0.03 mg/L [S]	0.5 mg/L [S]	0.06 mg/L [S]
Candida albicans isolate 212 (Erg11p: WT, Fur1p: R101C, Tac1p: WT)	0.5 mg/L [S]	≥ 8 mg/L [R]	≥ 16 mg/L [R]	≥ 8 mg/L [R]	0.015 mg/L [S]	≥ 256 mg/L [R]	0.06 mg/L [S]	0.5 mg/L [S]	0.06 mg/L [S]
Candida albicans isolate 76 (Erg11p: E266D,K143R, Fur1p: WT, Tac1p: N896S,I558V,A377V,F189S,N174D,M170I,K87N)	≤ 0.06 mg/L [S]	0.015 mg/L [S]	0.06 mg/L [S]	0.03 mg/L [S]	0.015 mg/L [S]	0.25 mg/L [S]	0.06 mg/L [S]	0.5 mg/L [S]	≤ 0.015 mg/L [S]
Candida albicans isolate 45 (Erg11p: WT, Fur1p: WT, Tac1p: I558V,A377V,F189S,N174D,M170I,K87N)	≤ 0.06 mg/L [S]	≤ 0.008 mg/L [S]	≤ 0.015 mg/L [S]	0.015 mg/L [S]	0.015 mg/L [S]	0.25 mg/L [S]	0.03 mg/L [S]	0.5 mg/L [S]	0.03 mg/L [S]
Candida albicans isolate 8 (Erg11p: WT, Fur1p: WT, Tac1p: WT)	≤ 0.06 mg/L [S]	≤ 0.008 mg/L [S]	0.06 mg/L [S]	0.015 mg/L [S]	0.015 mg/L [S]	0.5 mg/L [S]	0.015 mg/L [S]	0.5 mg/L [S]	≤ 0.015 mg/L [S]
Candida albicans isolate 174 (Erg11p: V488I,E266D, Fur1p: WT, Tac1p: M170V,S108N)	0.12 mg/L [S]	≤ 0.008 mg/L [S]	0.06 mg/L [S]	0.03 mg/L [S]	0.015 mg/L [S]	0.5 mg/L [S]	0.03 mg/L [S]	0.5 mg/L [S]	0.06 mg/L [S]
Candida albicans isolate 115 (Erg11p: V488I,E266D, Fur1p: WT, Tac1p: M170V,S108N)	≤ 0.06 mg/L [S]	≤ 0.008 mg/L [S]	0.03 mg/L [S]	0.03 mg/L [S]	0.015 mg/L [S]	0.25 mg/L [S]	0.03 mg/L [S]	1 mg/L [S]	0.03 mg/L [S]
Candida albicans isolate 296 (Erg11p: E266D, Fur1p: WT, Tac1p: G709S,I558V,A377V,F189S,N174D,M170I,K87N)	≤ 0.06 mg/L [S]	≤ 0.008 mg/L [S]	0.03 mg/L [S]	0.03 mg/L [S]	≤ 0.008 mg/L [S]	0.5 mg/L [S]	0.03 mg/L [S]	0.5 mg/L [S]	≤ 0.015 mg/L [S]
Candida albicans isolate 358 (Erg11p: V437I,E266D, Fur1p: WT, Tac1p: S937L,I895T,L695F,I558V,F189S,L131I)	≤ 0.06 mg/L [S]	0.015 mg/L [S]	0.03 mg/L [S]	0.015 mg/L [S]	0.015 mg/L [S]	1 mg/L [S]	0.03 mg/L [S]	0.25 mg/L [S]	0.06 mg/L [S]
Candida albicans isolate 147 (Erg11p: V488I,L301S,E266D, Fur1p: WT, Tac1p: N896S,M170V,S108N)	≤ 0.06 mg/L [S]	≥ 8 mg/L [R]	≥ 16 mg/L [R]	≥ 8 mg/L [R]	≤ 0.008 mg/L [S]	128 mg/L [R]	0.06 mg/L [S]	0.5 mg/L [S]	0.12 mg/L [S]

MIC of clinical C. albicans isolates, CLSI broth microdilution (ranges and time not stated); higher = less susceptible. Call: susceptible or wild type [S] / resistant or non-wild type [R] by CLSI breakpoints or epidemiological cut-offs; intermediate and dose-dependent carry no call here (the paper groups them with resistant). '<=' and '>=' mark each drug's lowest and highest value, inferred; the source prints them plain. Isolates are numbered anew.
